Results taken from PubChem BioAssay AID360 (National Center for Advancing Translational Sciences (NCATS), 2006).
Screen size: about 48,000 compounds; about 550 (1.1%) were called active. Another 4% or so got no clear call; they are omitted. No stated cut-off is given here; in the data, active means potency below about 15 µM; inconclusive means mostly about 16 µM to 33 µM; inactive means weaker than that. The list shows a part of the results.

These compounds were tested against Lysosomal acid glucosylceramidase (Homo sapiens) (UniProt P04062) (assay: Glucocerebrosidase). Conditions: purified enzyme, resorufin glucoside fluorescence (screen aimed at inhibitors), 20 min.
Summary of the method: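 Wild-type enzyme at 0.2 nM final in 50mM citric acid/KH2PO4, 10mM sodium taurocholate, 0.01% tween-20, pH 5.9, with resorufin beta-D-glucopyranoside at 30 uM final. Compounds titrated, 20 min at RT, red fluorescence read; AC50 from titration.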
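Further: the screen sought inhibitors.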
Potency means the concentration at half of the fitted maximal effect.

UniProt P04062, sequence (P04062 whole entry, looked up): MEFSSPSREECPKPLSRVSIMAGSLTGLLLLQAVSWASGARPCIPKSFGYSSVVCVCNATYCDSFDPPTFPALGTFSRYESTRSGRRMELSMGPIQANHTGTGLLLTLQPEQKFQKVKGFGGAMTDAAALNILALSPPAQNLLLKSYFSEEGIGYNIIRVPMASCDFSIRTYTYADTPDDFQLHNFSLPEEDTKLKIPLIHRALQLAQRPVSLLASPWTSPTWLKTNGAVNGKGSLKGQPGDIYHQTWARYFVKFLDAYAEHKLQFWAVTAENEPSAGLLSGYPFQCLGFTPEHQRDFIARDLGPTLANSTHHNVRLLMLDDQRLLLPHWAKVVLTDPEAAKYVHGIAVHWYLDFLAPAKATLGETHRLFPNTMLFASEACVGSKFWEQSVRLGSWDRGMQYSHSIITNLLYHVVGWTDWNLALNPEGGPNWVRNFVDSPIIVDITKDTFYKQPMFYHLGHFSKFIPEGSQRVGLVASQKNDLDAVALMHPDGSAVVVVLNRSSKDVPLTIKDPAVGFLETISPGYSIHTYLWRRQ

Potency, inactive:
COCCNC(=O)C(c1cccs1)N(C(=O)Cn1nnc2ccccc21)c1cccc(C(C)=O)c1 (stereo unspecified) > 76.9 µM, CCOC(=O)Nc1ccccc1N1C(=O)c2ccccc2C1=O > 76.9 µM, Cc1nc2ncnn2c(C)c1CCC(=O)N1CCc2ccccc2C1 > 76.9 µM, C=CCNc1ccc(F)c(F)c1N1CCCCCC1=O > 76.9 µM, Cc1ccnc(NS(=O)(=O)c2ccc(NS(=O)(=O)c3cccs3)cc2)n1 > 76.9 µM, CCOC(=O)c1nn(-c2ccccc2C)c(=O)c(C#N)c1C > 76.9 µM, CCOCCCNC(=O)CCS(=O)(=O)Cc1ccc(C)cc1 > 76.9 µM, O=C(NCCc1ccc(Cl)cc1)C1CCN(S(=O)(=O)N2CCCCC2)CC1 > 76.9 µM, C#CCNc1cc(C)nc2ncnn12 > 76.9 µM, CC(=O)Nc1ccc(Oc2cc(C#N)c(C#N)cc2N2CCCCCC2)cc1 > 76.9 µM, CCN1CCN(C(c2cc(OC)ccc2OC)c2nnnn2Cc2ccccc2)CC1 (stereo unspecified) > 76.9 µM, CC1CCN(C(=O)CSc2nc3cccnc3n2C)CC1 > 76.9 µM, COCCNC(=O)C(c1ccc(C)o1)N(C(=O)c1snc(C(N)=O)c1N)c1ccc(C)c(C)c1 (stereo unspecified) > 76.9 µM, Cn1c(=O)c2c(nc(CN3CCN(c4ccccc4)CC3)n2Cc2ccccc2F)n(C)c1=O > 76.9 µM, CCN(CC)CCc1c(C)[nH]c(C(=O)OCc2ccccc2)c1C > 76.9 µM, Cc1cc(=O)c2ccccc2[nH]1 > 76.9 µM, NC(=O)C1(N2CCCCC2)CCN(Cc2nc3ccccc3c(=O)[nH]2)CC1 > 76.9 µM, COC(=O)COc1ccc(S(=O)(=O)Nc2cc(OC)ccc2OC)cc1 > 76.9 µM, CC(C)(C)NC(=O)Cn1nnc(-c2ccc(S(C)(=O)=O)cc2)n1 > 76.9 µM, COc1ccc(NC(=O)c2ccc(S(=O)(=O)N(C)C)cc2)cc1OC > 76.9 µM, Nc1nonc1-n1nnc(C(=O)O)c1-c1cccs1 > 76.9 µM, COc1cc(-c2noc(CCC(N)=O)n2)cc(OC)c1OC > 76.9 µM, O=S(=O)(N1CCOCC1)N1CCN(c2ccccc2F)CC1 > 76.9 µM, COCCNc1nc(-n2nc(C)cc2C)nc2sc3c(c12)CCCC3, COC(=O)c1ccccc1NC(=O)Cn1cc(Br)cn1 > 76.9 µM, CCC(=O)N1CCc2cc(S(=O)(=O)Nc3ccc4c(c3)OCCO4)ccc21 > 76.9 µM, Cc1nc(N2CCN(c3ccccc3)CC2)[nH]c(=O)c1Cc1cccc2ccccc12 > 76.9 µM, CCOC(=O)c1ccc(Oc2nc(NC)nc(OC)n2)cc1 > 76.9 µM, CCN(C(=O)COC(=O)c1cccnc1SC)C1CCS(=O)(=O)C1 (stereo unspecified) > 76.9 µM, COc1ccc(-c2nc(S(=O)(=O)c3ccc(C)cc3)c(N3CCCC3)o2)cc1 > 76.9 µM, COCc1cc(C)nc(SCC(=O)N2CCC(C)CC2)c1C#N > 76.9 µM, COc1ccc(S(=O)(=O)N(C)CC(=O)Nc2c(F)cccc2F)cc1 > 76.9 µM, Cc1nn(-c2ccccc2)c2c1C1(C(=O)N(C)c3ccccc31)N(c1ccccc1)C(=O)N2 (stereo unspecified) > 76.9 µM, COc1ccc(-c2nnn(CC(=O)N(CC(=O)NC3CCCC3)Cc3cccs3)n2)cc1OC > 76.9 µM, Cc1cc(C(=O)COC(=O)CCCN2C(=O)c3ccccc3C2=O)c(C)n1C > 76.9 µM, Cc1cccc(-c2nsc(SCC(=O)N3CCCC3)n2)c1 > 76.9 µM, CCOc1cc(S(=O)(=O)N(CC)CC)ccc1Br > 76.9 µM, NC(=O)CSc1nnc(-c2cc3ccccc3o2)n1Cc1ccccc1 > 76.9 µM, Cc1ccccc1Cc1c(C)nc2nc(SCC(=O)NCc3ccco3)nn2c1C > 76.9 µM, CCOc1cc(CO)ccc1OCC(=O)N1CCCCC1 > 76.9 µM, CN(C)S(=O)(=O)c1ccc(C(=O)Oc2cc(=O)[nH]c3ccccc23)cc1, COc1ccccc1Nc1ncccc1C(=O)O > 76.9 µM, Cc1nc(C)c(C(=O)C2=C(O)C(=O)N(CCN(C)C)C2c2cccs2)s1 (stereo unspecified) > 76.9 µM, Cn1c(CN2CCOCC2)nnc1SCC(=O)Nc1ccc2c(c1)OCCO2 > 76.9 µM, O=C1NC(c2ccccc2)C(C(=O)c2cccs2)C(O)(C(F)(F)F)N1 (stereo unspecified) > 76.9 µM, COC(=O)c1ccccc1NC(=O)CSc1nnc(COc2cccc(OC)c2)n1C > 76.9 µM, CC(NC(=O)NC12CC3CC(CC(C3)C1)C2)C1CCCO1 (stereo unspecified) > 76.9 µM, COc1ccc(CC(=O)Nc2nncs2)cc1OC > 76.9 µM, Cn1c(=O)cc(OCCCC(=O)N2CCN(Cc3ccc4c(c3)OCO4)CC2)c2ccccc21 > 76.9 µM, CN(CC(=O)N1CCN(C2CCCCC2)CC1)S(=O)(=O)c1cccc2nsnc12 > 76.9 µM, Cc1ccc(S(=O)(=O)N(C)c2nonc2C)cc1 > 76.9 µM, CCCc1[nH]nc2c1C1(C(=O)N(CC)c3ccccc31)C(C#N)=C(N)O2 (stereo unspecified) > 76.9 µM, CCOc1ccc2nc(NC(=O)C(CC)Sc3nc(C)cc(=O)[nH]3)sc2c1 (stereo unspecified) > 76.9 µM, CCOC(=O)C(NC(=O)c1ccc(F)cc1)(Nc1nnc(C)s1)C(F)(F)F (stereo unspecified) > 76.9 µM, Cc1cc(C(=O)OCC(=O)N2CCOCC2)c2ccccc2n1 > 76.9 µM, Cc1cc(C)c(S(=O)(=O)N(CC(=O)O)C2CCCCC2)c(C)c1 > 76.9 µM, COc1ccccc1-c1nnn(CC#N)n1 > 76.9 µM, COc1ccc(C(=O)NC2CCCCC2)cc1S(=O)(=O)N1CCCC1 > 76.9 µM, CC(C)OC(=O)CN1C(=O)C(C)(C)Oc2ccc(C(=O)NC(C)(C)C)cc21 > 76.9 µM, O=C(N1CCCCC1)N1CCN(C(=O)N(c2ccccc2)c2ccccc2)CC1 > 76.9 µM, COc1cc(NC(=O)Nc2ccccc2)c(OC)cc1NC(=O)CN1CCCCC1 > 76.9 µM, COCCNC(=O)c1c[nH]c2ccc(OC)cc2c1=O > 76.9 µM, CCCCCSc1nnc(-c2cc(Br)ccc2N)c(=O)[nH]1, CCNCCNC(=O)c1c(O)c2c([nH]c1=O)CCCC2 > 76.9 µM, CCn1ncc(Cl)c1C(=O)Nc1cc(Cl)ccc1Cl > 76.9 µM, CCOC(=O)c1cc(C#N)c(SCC(=O)c2cc(C#N)c(SC)nc2C)[nH]c1=O > 76.9 µM, COC(=O)[C@H](CCSC)NC(=O)NC1CCN(Cc2ccccc2)CC1 > 76.9 µM, COCCCNC(=O)Cn1nnc(-c2ccccc2NC(=O)c2ccc(F)cc2)n1 > 76.9 µM, CCN1C(=O)C2C(c3cccc(F)c3)NC(CC)(C(=O)OC)C2C1=O (stereo unspecified) > 76.9 µM, O=S(=O)(NCCC1=CCCCC1)c1cccc2nsnc12 > 76.9 µM, O=C(c1nc(-c2ccccc2)n(-c2ccccc2)n1)N1CCCCCC1 > 76.9 µM, COc1ccc(CN(CCN2CCOCC2)C(=O)c2c(F)cccc2F)cc1OC > 76.9 µM, CCOC(=O)c1ccc(S(=O)(=O)N2CCN(S(=O)(=O)CC)CC2)cc1 > 76.9 µM, CC(C)Sc1nc2sc3c(c2c2nnc(SCC(=O)NCc4ccco4)n12)CCCC3 > 76.9 µM, COc1ccc(CCNC2=NCC(C)S2)cc1 (stereo unspecified) > 76.9 µM, COC(=O)Cn1cnc2sc(C)c(S(=O)(=O)N3CCN(c4ccccc4OC)CC3)c2c1=O > 76.9 µM, CCOc1ccc(-c2nc(CSCC(=O)NCc3ccco3)c(C)o2)cc1 > 76.9 µM, Cc1ccc(CS(=O)(=O)CCC(=O)NCCCN2CCCC2=O)cc1 > 76.9 µM, Cc1ccc(-c2nnc3sc(CCc4ccccc4)nn23)cc1 > 76.9 µM, O=C1c2ccccc2S(=O)(=O)N1Cc1cccc(S(=O)(=O)N2CCOCC2)c1 > 76.9 µM, Cc1csc(NC(=O)C2CCCO2)n1 (stereo unspecified) > 76.9 µM, Cc1scc(C(=O)Nc2ccon2)c1-c1ccccc1 > 76.9 µM, CC(C(=O)NCc1cccs1)n1cccc1 (stereo unspecified) > 76.9 µM, Cc1cc2cc3c(cc2nc1SCC(=O)N1CCN(C(=O)c2ccco2)CC1)OCO3 > 76.9 µM, O=C(NCCCN1CCOCC1)c1csc2c1CCCC2 > 76.9 µM, CCOC(=O)C1C(=O)C=C(C)C(C(=O)OCC)C1c1ccc(OC)cc1 (stereo unspecified) > 76.9 µM, COc1ccc(C(=O)CSc2nnc(-c3cc(C)cc(C)c3)o2)cc1 > 76.9 µM, CCOC(=O)N1CCC(NC(=O)CCC(=O)N2CC(C)Oc3ccc(Cl)cc32)CC1 (stereo unspecified) > 76.9 µM, COCCSc1nnc(-c2cccc(C#N)c2)n1C > 76.9 µM, Cc1ccc(C(=O)OCc2cn3ccccc3n2)cc1 > 76.9 µM, CCOC(=O)C1=C(N)OC2=C(C(=O)CCC2)C1c1cccnc1 (stereo unspecified) > 76.9 µM
